# Some of the results follow.
# B1: F17bG (Escherichia coli), Q47200 (protein)
# chain: MTNFYKVFLAVFILVCCNISHAVVSFIGSTENDVGPSQGSYSSTHAMDNLPFVYNTGYNIGYQNANVWRIGGGFCVGLDGKVDLPVVGSLDGQSIYGLTEEVGLLIWMGDTNYSRGTAMSGNSWENVFSGWCVGNYLSTQGLSVHVRPVILKRNSSAQYSVQKTSIGSIRMRPYNGSSAGSVQTTVNFSLNPFTLNDTVTSCRLLTPSAVNVSLAAISAGQLPSSGDEVVAGTTSLKLQCDAGVTVWATLTDATTPSNRSDILTLTGASTATGVGLRIYKNTDSTPLKFGPDSPVKGNENQWQLSTGTETSPSVRLYVKYVNTGEGINPGTVNGISTFTFSYQ
# Assays:
# Experiment in all cases: glycan array binding signal (z-score within array); higher = stronger binding
# Details in all cases: glycan notation: IUPAC condensed, linker removed
# Gal(b1-4)Glc = target: Gal(b1-4)Glc
# Procedure, shortened: (§1)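 Arrays were curated from the Consortium for Functional Glycomics database, 3228 in total, and kept only where the protein sequence was available. Binding is expressed as a within-array Z-score. This score was averaged across arrays of the same protein sequence at different concentrations or buffers and across linkers, and negative values can be read as non-binding.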
# Gal(b1-4)Glc6S = target: Gal(b1-4)Glc6S
# Procedure, shortened: as §1
# Gal(b1-4)GlcNAc = target: Gal(b1-4)GlcNAc
# Procedure, shortened: as §1
# [1] = target: Gal(b1-4)GlcNAc(b1-2)Man(a1-3)[Gal(b1-4)GlcNAc(b1-2)Man(a1-6)]Man(b1-4)GlcNAc(b1-4)GlcNAc
# Procedure, shortened: as §1
# [2] = target: Gal(b1-4)GlcNAc(b1-3)Gal(b1-4)Glc
# Procedure, shortened: as §1
# [3] = target: Gal(b1-4)GlcNAc(b1-3)Gal(b1-4)GlcNAc
# Procedure, shortened: as §1
# [4] = target: Gal(b1-4)GlcNAc(b1-3)Gal(b1-4)GlcNAc(b1-3)Gal(b1-4)GlcNAc
# Procedure, shortened: as §1
# [5] = target: Gal(b1-4)GlcNAc(b1-3)Gal(b1-4)[Fuc(a1-3)]GlcNAc(b1-3)Gal(b1-4)[Fuc(a1-3)]GlcNAc
# Procedure, shortened: as §1
# [6] = target: Gal(b1-4)GlcNAc(b1-3)GalNAc
# Procedure, shortened: as §1
# [7] = target: Gal(b1-4)GlcNAc(b1-3)[Gal(b1-4)GlcNAc(b1-6)]GalNAc
# Procedure, shortened: as §1
# [8] = target: Gal(b1-4)GlcNAc(b1-6)Gal(b1-4)GlcNAc(b1-6)GalNAc
# Procedure, shortened: as §1
# [9] = target: Gal(b1-4)GlcNAc(b1-6)GalNAc
# Procedure, shortened: as §1
# [10] = target: Gal(b1-4)GlcNAc(b1-6)[Gal(b1-3)]GalNAc
# Procedure, shortened: as §1
# Gal3S(b1-3)GalNAc = target: Gal3S(b1-3)GalNAc
# Procedure, shortened: as §1
# Gal3S(b1-3)GlcNAc = target: Gal3S(b1-3)GlcNAc
# Procedure, shortened: as §1
# [11] = target: Gal3S(b1-3)[Fuc(a1-4)]GlcNAc
# Procedure, shortened: as §1
# Gal3S(b1-4)Glc = target: Gal3S(b1-4)Glc
# Procedure, shortened: as §1
# Gal3S(b1-4)Glc6S = target: Gal3S(b1-4)Glc6S
# Procedure, shortened: as §1
# Gal3S(b1-4)GlcNAc = target: Gal3S(b1-4)GlcNAc
# Procedure, shortened: as §1
# Gal3S(b1-4)GlcNAc6S = target: Gal3S(b1-4)GlcNAc6S
# Procedure, shortened: as §1
# Gal3S6S(b1-4)GlcNAc = target: Gal3S6S(b1-4)GlcNAc
# Procedure, shortened: as §1
# Gal3S6S(b1-4)GlcNAc6S = target: Gal3S6S(b1-4)GlcNAc6S
# Procedure, shortened: as §1
# Gal4S(b1-4)GlcNAc = target: Gal4S(b1-4)GlcNAc
# Procedure, shortened: as §1
# Gal4S6S(b1-4)GlcNAc = target: Gal4S6S(b1-4)GlcNAc
# Procedure, shortened: as §1
# Gal6S(b1-4)Glc = target: Gal6S(b1-4)Glc
# Procedure, shortened: as §1
# Gal6S(b1-4)Glc6S = target: Gal6S(b1-4)Glc6S
# Procedure, shortened: as §1
# Gal6S(b1-4)GlcNAc = target: Gal6S(b1-4)GlcNAc
# Procedure, shortened: as §1
# GalNAc(a1-3)Gal = target: GalNAc(a1-3)Gal
# Procedure, shortened: as §1
# GalNAc(a1-3)GalNAc = target: GalNAc(a1-3)GalNAc
# Procedure, shortened: as §1
# [12] = target: GalNAc(b1-3)Gal(a1-4)Gal(b1-4)GlcNAc
# Procedure, shortened: as §1
# GalNAc(b1-3)GalNAc = target: GalNAc(b1-3)GalNAc
# Procedure, shortened: as §1
# GalNAc(b1-4)GlcNAc = target: GalNAc(b1-4)GlcNAc
# Procedure, shortened: as §1
# Glc(a1-4)Glc = target: Glc(a1-4)Glc
# Procedure, shortened: as §1
# Glc(a1-6)Glc(a1-6)Glc = target: Glc(a1-6)Glc(a1-6)Glc
# Procedure, shortened: as §1
# Glc(b1-4)Glc = target: Glc(b1-4)Glc
# Procedure, shortened: as §1
# Glc(b1-6)Glc = target: Glc(b1-6)Glc
# Procedure, shortened: as §1
# GlcA(b1-3)Gal = target: GlcA(b1-3)Gal
# Procedure, shortened: as §1
# GlcA(b1-6)Gal = target: GlcA(b1-6)Gal
# Procedure, shortened: as §1
binder,measurement,setting,value
B1,glycan array binding signal (z-score),Gal(b1-4)Glc,-0.605
same,glycan array binding signal (z-score),Gal(b1-4)Glc6S,-0.036
same,glycan array binding signal (z-score),Gal(b1-4)GlcNAc,-0.375
same,glycan array binding signal (z-score),[1],-0.694
same,glycan array binding signal (z-score),[2],-0.088
same,glycan array binding signal (z-score),[3],0.185
same,glycan array binding signal (z-score),[4],-0.525
same,glycan array binding signal (z-score),[5],-0.475
same,glycan array binding signal (z-score),[6],-0.064
same,glycan array binding signal (z-score),[7],-0.53
same,glycan array binding signal (z-score),[8],-0.543
same,glycan array binding signal (z-score),[9],-0.71
same,glycan array binding signal (z-score),[10],-0.553
same,glycan array binding signal (z-score),Gal3S(b1-3)GalNAc,-0.037
same,glycan array binding signal (z-score),Gal3S(b1-3)GlcNAc,-0.051
same,glycan array binding signal (z-score),[11],0.086
same,glycan array binding signal (z-score),Gal3S(b1-4)Glc,0.202
same,glycan array binding signal (z-score),Gal3S(b1-4)Glc6S,0.563
same,glycan array binding signal (z-score),Gal3S(b1-4)GlcNAc,-0.092
same,glycan array binding signal (z-score),Gal3S(b1-4)GlcNAc6S,1.03
same,glycan array binding signal (z-score),Gal3S6S(b1-4)GlcNAc,0.748
same,glycan array binding signal (z-score),Gal3S6S(b1-4)GlcNAc6S,0.801
same,glycan array binding signal (z-score),Gal4S(b1-4)GlcNAc,-0.267
same,glycan array binding signal (z-score),Gal4S6S(b1-4)GlcNAc,0.82
same,glycan array binding signal (z-score),Gal6S(b1-4)Glc,-0.028
same,glycan array binding signal (z-score),Gal6S(b1-4)Glc6S,0.5
same,glycan array binding signal (z-score),Gal6S(b1-4)GlcNAc,0.145
same,glycan array binding signal (z-score),GalNAc(a1-3)Gal,-0.61
same,glycan array binding signal (z-score),GalNAc(a1-3)GalNAc,-0.634
same,glycan array binding signal (z-score),[12],-0.579
same,glycan array binding signal (z-score),GalNAc(b1-3)GalNAc,4.47
same,glycan array binding signal (z-score),GalNAc(b1-4)GlcNAc,-0.391
same,glycan array binding signal (z-score),Glc(a1-4)Glc,-0.639
same,glycan array binding signal (z-score),Glc(a1-6)Glc(a1-6)Glc,-0.606
same,glycan array binding signal (z-score),Glc(b1-4)Glc,-0.434
same,glycan array binding signal (z-score),Glc(b1-6)Glc,-0.419
same,glycan array binding signal (z-score),GlcA(b1-3)Gal,-0.13
same,glycan array binding signal (z-score),GlcA(b1-6)Gal,-0.278
